Results: PubChem BioAssay AID2546 (National Center for Advancing Translational Sciences (NCATS), 2010)
Out of some 310,000 compounds screened, about 11,000 (3.5%) were called active. Inconclusive means that the source gave no clear call. Such entries were picked first, then a sample of the others. The call rests on the fitted dose curve; in most records, active means well fitted inhibition curve with a large enough effect; inconclusive means small, poorly fitted or top-dose-only effect, or effect the other way; inactive means flat fitted curve, though single readings scatter. No potency is given beside an inconclusive call; the fits are too rough.

Experiment: VP16 counterscreen qHTS for inhibitors of ROR gamma transcriptional activity;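 further: Gal4-VP16 expression switched on by copper sulfate through the metallothionein promoter; nearly all actives have a fitted effect of over 50% in size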
Conditions: Drosophila S2 Gal4-VP16 UAS-luciferase, luminescence, 20 h; activity, negative = inhibition: at 53.6 µM (top of the series)
On the % scale 0 is the no-effect control and ±100 the full control effect; potency means the concentration at half of the fitted maximal effect; tags describe the fitted curve by direction and shape.

Row | SMILES | Potency | activity, negative = inhibition
1 | C=CCN1C(=O)/C(=C/c2ccc(OC(C)=O)c(OCC)c2[N+](=O)[O-])SC1=S | inconclusive [inhibitor, single point] | –
2 | COc1ccc(-c2csc(CCn3nc(C)cc3C)n2)cc1 | inconclusive [inhibitor, single point] | –
3 | CCC(=O)Nc1cc(C(=O)OCc2ccc(C(=O)Oc3ccccc3)cc2)ccc1C | inconclusive [inhibitor, single point] | –
4 | O=C(N/N=C1\CC(c2ccccc2)Oc2ccccc21)c1ccc(O)cc1 (centres undefined) | inconclusive [inhibitor, partial curve] | –
5 | COCCN1C(=O)/C(=C/c2cc3c(cc2Br)OCO3)NC1=S | inconclusive [inhibitor, single point] | –
6 | CCOc1ccc(-c2nnc(NC(=O)C3CCCC3)o2)cc1 | inconclusive [inhibitor, single point] | –
7 | Cc1ccc(NC(=S)NCC(C)C)cc1 | active: 11.2 µM | –
8 | OC(CN1CCCCCC1)CN(c1ccccc1)c1ccccc1 (centres undefined) | inconclusive [inhibitor, single point] | –
9 | O=C(C1=C[C@@H](c2ccc(Br)cc2)C[C@@H](OCCCCO)O1)N1CCN(Cc2ccc3c(c2)OCO3)CC1 | inconclusive [inhibitor, single point] | –
10 | O=C(CN1CCC(C(=O)c2ccc(F)cc2)CC1)Nc1ccccc1 | inconclusive [inhibitor, single point] | –
11 | OC1(c2ccccc2)c2ccccc2-c2ncccc21 (centres undefined) | – | inactive: 9.14%
12 | Cc1ccccc1[C@@H]1C(C#N)=C(N)S[C@H]1C(=O)c1ccccc1 | inconclusive [inhibitor, single point] | –
13 | Cc1ccccc1N1CCN(C(=S)c2ccccc2)CC1 | – | inactive: -8.87%
14 | S=C(NCc1ccccc1)NCc1ccc2c(c1)OCO2 | inconclusive [inhibitor, single point] | –
15 | CCN(CC)C(=O)c1ccc(S(=O)(=O)NCc2cccnc2)cc1 | inconclusive [inhibitor, single point] | –
16 | CC(C)c1ccc(NC(=O)CCS(=O)(=O)c2cccc3nonc23)cc1 | – | inactive: 0.857%
17 | Cc1c(NC(=O)c2ccccc2NC(=O)COc2ccccc2)cccc1C(=O)O | active: 12.6 µM | –
18 | COc1cc(NC(=O)c2cc([N+](=O)[O-])ccc2NC(=O)CNCc2ccccn2)cc(OC)c1 | inconclusive [inhibitor, single point] | –
19 | COc1ccc2[nH]c(C)c(CCNC(=S)Nc3ccccc3C)c2c1 | inconclusive [inhibitor, partial curve, poor fit] | –
